These results are taken from PubChem BioAssay AID1645882 (National Center for Advancing Translational Sciences (NCATS), 2021).

In all, about 16,000 compounds went through this assay and about 120 (0.75%) were called active. About 4% were inconclusive and are not listed. The call rests on the fitted dose curve; in most records, active means well fitted inhibition curve with a large enough effect; inconclusive means small, poorly fitted or top-dose-only effect; inactive means no such curve, though single readings can be large or run the other way. Some of the results follow.
Potency means the concentration at half of the fitted maximal effect.

Sequence of UniProt O95398 (O95398 whole entry, looked up): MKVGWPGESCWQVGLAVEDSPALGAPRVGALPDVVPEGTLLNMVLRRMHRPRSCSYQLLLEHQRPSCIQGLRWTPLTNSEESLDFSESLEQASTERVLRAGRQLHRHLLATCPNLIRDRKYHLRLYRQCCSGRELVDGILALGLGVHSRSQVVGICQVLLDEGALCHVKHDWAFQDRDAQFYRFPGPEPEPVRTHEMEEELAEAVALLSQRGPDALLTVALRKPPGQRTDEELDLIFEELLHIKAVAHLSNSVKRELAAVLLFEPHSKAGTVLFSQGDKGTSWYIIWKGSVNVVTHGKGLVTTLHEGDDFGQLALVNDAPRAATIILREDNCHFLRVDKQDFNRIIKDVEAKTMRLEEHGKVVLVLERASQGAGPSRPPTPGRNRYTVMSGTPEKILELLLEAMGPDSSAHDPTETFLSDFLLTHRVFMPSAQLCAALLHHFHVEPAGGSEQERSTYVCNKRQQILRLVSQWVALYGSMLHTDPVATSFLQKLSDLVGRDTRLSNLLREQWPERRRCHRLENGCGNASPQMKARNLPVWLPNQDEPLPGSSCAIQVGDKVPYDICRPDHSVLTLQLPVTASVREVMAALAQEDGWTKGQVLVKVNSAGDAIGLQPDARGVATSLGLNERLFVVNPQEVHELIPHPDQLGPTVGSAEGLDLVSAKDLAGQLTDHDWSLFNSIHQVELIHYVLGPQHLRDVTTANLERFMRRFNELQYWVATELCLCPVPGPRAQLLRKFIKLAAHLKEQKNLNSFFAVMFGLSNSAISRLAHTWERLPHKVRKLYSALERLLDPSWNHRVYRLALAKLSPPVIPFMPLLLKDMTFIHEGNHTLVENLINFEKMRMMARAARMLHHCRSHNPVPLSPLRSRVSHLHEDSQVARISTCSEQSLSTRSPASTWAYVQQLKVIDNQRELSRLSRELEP

The target of the experiment is Rap guanine nucleotide exchange factor 3 (Homo sapiens) (UniProt O95398). As to the kind of experiment: Validation qHTS for antagonist of cAMP-regulated guanine nucleotide exchange factor 3 (EPAC1). Further: nearly all actives have a fitted effect of over 75% in size. The conditions noted are these: EPAC1 Rap1B-BODIPY-GDP exchange, fluorescence; activity change, negative = inhibition: at the top concentration. An excerpt:
Assay Provider (PI): Xiaodong Cheng Ph.D.
The University of Texas Medical Branch, […], TX
In multi-cellular eukaryotic organisms, the effects of cAMP are transduced by two ubiquitously-expressed intracellular cAMP receptors, the classic protein kinase A/cAMP-dependent protein kinase (PKA/cAPK) and the more recently discovered exchange protein directly activated by cAMP/cAMP-regulated guanine nucleotide exchange factor (EPAC/cAMP-GEF). Both PKA and EPAC are ubiquitously expressed in all tissues, and an increase in intracellular cAMP levels will lead to the activation of both PKA and EPAC. Therefore, careful dissections of the individual role and relative contribution of EPAC and PKA within the overall cAMP signaling in various model systems are critical for further elucidating the mechanism of cAMP signaling. To date no EPAC-specific antagonists and agonist, as well as isoform-specific agonists have been reported, and developing EPAC-specific pharmacological probes to determine the physiological functions that EPAC play in the overall cAMP-mediated signaling remains a major challenge within the research field. Furthermore, identified regulators of EPAC may lead to new mechanism-based therapeutic strategies specifically targeting the EPAC / cAMP-signaling components as EPAC has been implicated to play important roles in major human pathological conditions such as diabetes, heart disease, and cancer.
This qHTS will be used to screen the Molecular Libraries Small Molecule Repository (MLSMR) as a concentration-titration series using the NCGC unique quantitative screening (qHTS) platform to find activators for EPAC1. In addition, this assay will also be used as a counterscreen for the EPAC2 qHTS. This fluorescent based assay is developed and validated for EPAC1 that measures exchange using EPAC effector Rap1 complex with BODIPY-GDP, a GDP analog with a tethered fluorophores. Activators are identified by monitoring the change in fluorescence signal as the exchanged free BODIPY-GDP has a reduced fluorescence compared to Rap1-bound BODIPY-GDP. Increase in signal (activation) is the desired outcome for the EPAC1 agonist while no activity in this assay is desired for the EPAC2 agonist counterscreen.
[1] de Rooij, J., Zwartkruis, F. J., Verheijen, M. H., Cool, R. H., Nijman, S. M., Wittinghofer, A., and Bos, J.L. (1998) Nature 396, 474-477.
Briefly, three uL of reagents (100 nM EPAC1, 250 nM RAP1B-BODIPY-GDP, 50 uM GDP) were dispensed into a 1536-well Greiner black solid-bottom medium binding assay plate. Controls and test compounds (23 nL) were transferred to the plate via a Kalypsys pin tool equipped with a 1536-pin array. The plates were centrifuged at 1,000 rpm for 15 seconds followed by 5 minute incubation at room temperature. The assay plates were read at 5 minute intervals for 30 minutes in the ViewLux plate reader using 480nm excitation and 540nm emission filters. The results were normalized to the […] positive control ATA and DMSO.
Take `CNc1ccccc1C(=O)O`: the “activity change, negative = inhibition” value was inactive: 17.1%.

Take `CN(C(=O)Cc1ccc(Cl)c(Cl)c1)[C@@H](CN1CCCC1)c1cccc(OCC(=O)O)c1`: the “activity change, negative = inhibition” value was inactive: 2.58%.

For `COc1nn(CSP(=S)(OC)OC)c(=O)s1`, the “activity change, negative = inhibition” value was inactive: 45.3% [at 320 µM].

For the compound `NC(N)=Nc1ccc2[nH]c3c(c2c1)C[C@]1(O)[C@@H]2Cc4ccc(O)c5c4[C@]1(CCN2CC1CC1)[C@@H]3O5`, the “activity change, negative = inhibition” value was inactive: 3.01%.

In the case of `CC(Cc1ccccc1)NCCn1cnc2c1c(=O)n(C)c(=O)n2C` (stereo not given), the “activity change, negative = inhibition” value was inactive: 6.07% [at 320 µM].

For the compound `O[C@H]1[C@H](O)[C@@H](O)CN2CC[C@H](O)[C@H]12`, the “activity change, negative = inhibition” value was inactive: 20.1% [at 320 µM].

`CC1(C)C2C[C@@H](O)[C@]3(C)C(CC[C@@]4(C)[C@H](c5ccoc5)C[C@H]5O[C@]543)[C@@]2(C)[C@@H](O)C[C@H]1O` (stereo not given in full): the “activity change, negative = inhibition” value is inactive: 16.8%.

For `CC(C)NC(=O)N1CC[C@@]2(CCCNC2)C1`, the “activity change, negative = inhibition” value was inactive: 18.9%.

As for `C[C@]12CCC3C(CC[C@]4(O)C[C@@H](O)CC[C@]34C=O)[C@@]1(O)CC[C@@H]2C1=CC(=O)OC1` (stereo not given in full), the “activity change, negative = inhibition” value is inactive: 13.9%.

As for `CN1C[C@@H](CO)C=C2c3cccc4[nH]cc(c34)CC21` (stereo not given in full), the “activity change, negative = inhibition” value is inactive: 17.8%.

For `C=CC(=O)NCNC(=O)C=C`, the “activity change, negative = inhibition” value was inactive: 25.5% [at 320 µM].

As for `O=C(Oc1ccccc1)N1CCC2(CCCN(Cc3nccs3)C2)CC1`, the “activity change, negative = inhibition” value was inactive: 15.6%.

On to `Cn1cccc1-c1cccnc1`, for which the “activity change, negative = inhibition” value is inactive: 38%.

Regarding `CC(=O)OC1CC2C(C)(C)C(O)C=C[C@@]2(C)C2CC[C@]3(C)C(=CC(=O)OC3c3ccoc3)[C@]12C` (stereo not given in full), the “activity change, negative = inhibition” value was inactive: 0.723%.

With `CCOP(=S)(OCC)O/N=C(\C#N)c1ccccc1`, the “activity change, negative = inhibition” value was inactive: 14.1%.

In the case of `C=CCN1CC[C@]23c4c5ccc(O)c4O[C@@H]2C(=O)CC[C@]3(O)[C@H]1C5`, the “activity change, negative = inhibition” value was inactive: 1.3%.

`C=C(C)[C@H]1CN[C@H](C(=O)O)[C@@H]1CC(=O)O`: the “activity change, negative = inhibition” value was inactive: 13.3%.

As for `O=C1Nc2ccc(Cl)cc2C(c2ccccc2Cl)=NC1O` (stereo not given), the “activity change, negative = inhibition” value is inactive: 12.4%.

Turning to `CC(=O)OC1(c2ccccc2)CCN(CCc2ccccc2)CC1`, the “activity change, negative = inhibition” value was inactive: 27% [at 320 µM].

Consider `Clc1cncc(N2CCNCC2)n1`, for which the activity change, negative = inhibition result is “inactive”.

For the compound `CCN(CC)CCc1c[nH]c2ccccc12`, the “activity change, negative = inhibition” value was inactive: 26.6% [at 320 µM].

Take `COC1CC(=C(c2cccs2)c2cccs2)C[N+](C)(C)C1` (stereo not given): the “activity change, negative = inhibition” value is inactive: 9.46%.

Regarding `CC(C)(C)c1o[nH]c(=O)c1C[C@H](N)C(=O)O`, the “activity change, negative = inhibition” value was inactive: 8.11%.

In the case of `CN1CCN(C(=O)O[C@H]2c3nccnc3C(=O)N2c2ccc(Cl)cn2)CC1`, the “activity change, negative = inhibition” value is inactive: 11.5%.

`Oc1ccc2[nH]cc(CCCCN3CC=C(c4ccccc4)CC3)c2c1`: the “activity change, negative = inhibition” value is inactive: 11.1%.

In the case of `O=C(Cc1ccc(Cl)c(Cl)c1)N1CCCC[C@H]1CN1CCCC1`, the “activity change, negative = inhibition” value is inactive: 2.89%.

Turning to `NC(=O)c1cc([N+](=O)[O-])cc([N+](=O)[O-])c1`, the “activity change, negative = inhibition” value is inactive: 11.1%.

On to `COc1ccc2c(c1O)-c1c(OC)c(OC)cc3c1[C@H](C2)N(C)CC3`, for which the “activity change, negative = inhibition” value was inactive: 12.6%.

Consider `O=CN1CCCCC1C1CC[C@H]2CCCCN2C1` (stereo not given in full), for which the “activity change, negative = inhibition” value is inactive: 10.6%.

In the case of `c1ccc2sc(C3(N4CCCC4)CCCCC3)cc2c1`, the “activity change, negative = inhibition” value was inactive: 23.3%.

With `O=C1CC[C@@]2(O)[C@H]3Cc4ccc(O)c5c4[C@@]2(CCN3CC2CC2)[C@H]1O5`, the “activity change, negative = inhibition” value is inactive: 18.6%.

For `O=C(CC[N+](=O)[O-])OCC1OC(O)C(OC(=O)CC[N+](=O)[O-])[C@@H](OC(=O)CC[N+](=O)[O-])C1OC(=O)CC[N+](=O)[O-]` (stereo not given in full), the “activity change, negative = inhibition” value was inactive: 6.61%.

In the case of `CC1(C)C(O)CC(O)[C@]2(C)C1CC(O)[C@]1(C)C2CC[C@@]2(C)C(c3ccoc3)CC3OC312` (stereo not given in full), the “activity change, negative = inhibition” value is inactive: -27.1%.

On to `Cn1c(CCCC(=O)O)nc2cc(N(CCCl)CCCl)ccc21`, for which the “activity change, negative = inhibition” value was inactive: 17.5%.

As to `COC1=CC=C2[C@H]3Cc4ccc(OC)c5c4[C@@]2(CCN3C)[C@H]1O5`, the activity change, negative = inhibition result is “inactive”.

For the compound `CN1CCc2cc(O)cc3c2C1Cc1ccc(O)c(O)c1-3` (stereo not given), the “activity change, negative = inhibition” value is inactive: 39.7%.

Turning to `NC(CP(=O)(O)O)C(=O)O` (stereo not given), the activity change, negative = inhibition entry was “inactive”.

Consider `C=CCN1CC[C@]23c4c5ccc(O)c4O[C@H]2[C@@H](O)C=C[C@H]3[C@H]1C5`, for which the “activity change, negative = inhibition” value was inactive: 22.6%.

As for `CN[C@@H](C)Cc1ccccc1`, the “activity change, negative = inhibition” value was inactive: 18.5% [at 320 µM].

In the case of `CN1CCc2cc(O)cc3c2[C@H]1Cc1ccc(O)c(O)c1-3`, the “activity change, negative = inhibition” value was inactive: 4.22% [at 75.8 µM].

Take `CC(NC(C)(C)C)C(=O)c1cccc(Cl)c1` (stereo not given): the activity change, negative = inhibition entry is “inactive”.

For the compound `CN(C)CCCCCCN(C)C` (tested in a mixture with another compound), the “activity change, negative = inhibition” value was inactive: 7.39%.

`O=C(O)CCCO`: the “activity change, negative = inhibition” value was inactive: 18.9% [at 320 µM].

`COc1ccc(OC)c(C[C@H](C)N)c1`: the “activity change, negative = inhibition” value is inactive: 32% [at 320 µM].

Take `NCc1cccnc1`: the “activity change, negative = inhibition” value is inactive: 8.19%.

Turning to `CCCCC/C=C\C/C=C\C/C=C\C/C=C\CCCCCC(=O)NCCO`, the activity change, negative = inhibition is inactive: 5.39% [at 15.3 µM].

Consider `C[C@H](N)Cc1cccc(C(F)(F)F)c1`, for which the “activity change, negative = inhibition” value is inactive: -7.79% [at 75.8 µM].

On to `[S]=[Sb](=[S])[S][Sb](=[S])=[S]`, for which the “activity change, negative = inhibition” value is inactive: 18.7%.

For `Cc1cc(C)cc(C(=O)OC2C[C@H]3CC[C@@H](C2)N3C)c1` (stereo not given in full), the activity change, negative = inhibition result is “inactive”.

For `CN(C)[C@@H]1C(=O)C(C(N)=O)=C(O)[C@@]2(O)C(=O)C3=C(O)c4c(O)cccc4[C@@](C)(O)[C@H]3C[C@@H]12`, the “activity change, negative = inhibition” value is inactive: 22.2% [at 75.8 µM].

For `CCCC[N+]12C3CC(C(CC)[C@H]1O)[C@@H]1C(O)C4(C[C@@H]12)c1ccccc1N(C)C34` (stereo not given in full), the “activity change, negative = inhibition” value is inactive: 24.3%.

In the case of `NC[C@H](CC(=O)O)c1ccc(Cl)cc1`, the “activity change, negative = inhibition” value was inactive: 5.43%.

As for `C=CCSSCC=C`, the “activity change, negative = inhibition” value is inactive: 7.17%.

Turning to `CC(C)NC(=O)N1CCC2(CCNCC2)CC1`, the “activity change, negative = inhibition” value was inactive: 19.2%.

Regarding `O[C@@H]1[C@H](O)[C@H]2[C@@H](O)CCN2C[C@@H]1O`, the “activity change, negative = inhibition” value is inactive: 4.73%.

In the case of `NCC(CC(=O)O)c1ccc(Cl)cc1` (stereo not given), the activity change, negative = inhibition entry is “inactive”.

As for `O=C1OC(c2ccc(O)c(S(=O)(=O)O)c2)(c2ccc(O)c(S(=O)(=O)O)c2)c2c(Br)c(Br)c(Br)c(Br)c21`, the Potency was active: 14.1 µM.

As for `CC(=O)O[C@H]1CC[C@H]2[C@@H]3CCC4=CC(=O)CCC4=C3C=C[C@]12C`, the “activity change, negative = inhibition” value was inactive: 6.34%.

Regarding `CC(C)CN1CC2(CCN(C(=O)c3ccncc3)CC2)C1`, the “activity change, negative = inhibition” value is inactive: 9.72%.

For the compound `O=c1cccc2n1CC1CNC[C@H]2C1`, the activity change, negative = inhibition result is “inactive”.

As for `CC(C)[C@]12O[C@H]1[C@@H]1O[C@]13[C@]1(O[C@H]1C[C@H]1C4=C(CC[C@@]13C)C(=O)OC4)[C@@H]2O`, the “activity change, negative = inhibition” value is inactive: 1.76% [at 201 µM].

As for `CCOC(=O)CC(SP(=S)(OC)OC)C(=O)OCC` (stereo not given), the activity change, negative = inhibition entry is “inactive”.

Take `CN(C(=O)Cc1ccc(Cl)c(Cl)c1)C(CN1CCCC1)c1cccc(N=C=S)c1` (stereo not given): the “activity change, negative = inhibition” value is inactive: 5.58%.

As for `CC(C)=C[C@@H]1[C@@H](C(=O)OCc2coc(Cc3ccccc3)c2)C1(C)C`, the “activity change, negative = inhibition” value was inactive: 0.96%.

Regarding `CCCN(CCC)CCc1c[nH]c2ccccc12`, the “activity change, negative = inhibition” value is inactive: 14.5% [at 320 µM].

Regarding `CN1CC[C@]23c4c5ccc(O)c4O[C@H]2[C@@H](O)C=C[C@H]3[C@H]1C5`, the “activity change, negative = inhibition” value is inactive: -7.26% [at 320 µM].

As to `CN(CCCC(=O)c1cccnc1)N=O`, the “activity change, negative = inhibition” value is inactive: 20.4%.

As to `O=[N+]([O-])c1cc([N+](=O)[O-])c2ccccc2c1`, the “activity change, negative = inhibition” value is inactive: 46.9% [at 320 µM].

Turning to `CC(N)Cc1ccc(O)cc1` (stereo not given), the “activity change, negative = inhibition” value is inactive: 6.83%.

As to `C[Se]C[C@H](N)C(=O)O`, the “activity change, negative = inhibition” value was inactive: -3.63% [at 75.8 µM].
